This is one part of the list. Further columns of the screen follow, without active or inactive calls.

The source of these data is PubChem BioAssay AID1745853 (National Center for Advancing Translational Sciences (NCATS), 2022).

Common to all, as to experiment: Primary Screen for Target Class Profiling of Small Molecule Inhibitors of Methyltransferases
The target of test [1] is Glycine N-methyltransferase (Homo sapiens) (UniProt Q14749). The conditions noted are these: purified enzyme, MTase-Glo SAH luminescence; measured here: GNMT inhibition; at 40 µM; stronger effect = lower value. The source says:
(§1) PI: Matthew D. Hall Ph.D. and Quinlin M. Hanson Ph.D.
(§2) National Center for Advancing Translational Sciences (NCATS)
(§3) National Institute of Health (NIH), Rockville, MD
(§4) Target class profiling (TCP) is a chemical biology approach amenable to investigating understudied biological targets. TCP is achieved by developing a generalizable assay platform and applying it to screen a curated set of compound libraries against representative members of a target class. Small molecule methyltransferases (SMMTase) are a subclass of methyltransferase that act on metabolites to modulate signaling pathways, metabolize xenobiotics, or balance the available methyl pool. We screened four curated libraries totaling 27,574 unique compounds against the SMMTases nicotinamide N-methyltransferase (NNMT), phenylethanolamine N-methyltransferase (PNMT), histamine N-methyltransferase (HNMT), glycine N-methyltransferase (GNMT), catechol O-methyltransferase (COMT), and guanidinoacetate N-methyltransferase (GAMT). The data generated by this TCP can be leveraged for informed tool molecule development. For example, in the associated publication we identified a chemotype of HNMT-selective inhibitors. Additionally, we identified a putative SMMTase-selective inhibitor with potential as a tool molecule for studying broader methyltransferase biology.
(§5) High-through put screening assays were developed at the National Center for Advancing Translational Science (NCATS) for the enzymes NNMT, PNMT, HNMT, GNMT, COMT, and GAMT. Enzymatic activity was measured as a function of SAM cofactor conversion using the MTase Glo kit (Promega) for all enzymes. All assays were performed in 1536-well format with substrates and SAM concentrations at KM values. Enzyme concentration and assay timing were optimized for 10-20% SAM conversion. Initial screening of 27,574 compounds was done as single-point assays using the highest compound concentration (40 uM). […] These compounds were replated in 11-point dose response and assayed against NNMT, PNMT, HNMT, GNMT, COMT, GAMT, and a counter-assay. The IC50 and efficacy (maximal response) values were determined for each dose-response curve. These values are also accounted for in the area under the curve (AUC) values.
(§6) PROTOCOL TABLE (as described by Inglese J, Shamu CE and Guy RK. 2007)
(§7) SEQUENCE No. (e.g., 1, 2, 3, etc.); […] (e.g., Cells, Incubation, Reagent, etc.); VALUE; DESCRIPTION.
(§8) 1; Reagent; 2 uL; SMMTase Enzyme (2x) in reaction buffer, columns 1- 48.
(§9) 2; Reagent; 1 uL; SAM (4x) in reaction buffer, columns 1-48.
(§10) 3; Controls; 23 nL; DMSO in column 4; sinefungin in DMSO (0 uM - 40 uM) in 7-point 1:2 dilution series (n = 2) in column 2.
(§11) 4; Compounds; 23 nL; Columns 5-48.
(§12) 5; Reagent; 1 uL; Substrate (4x) in reaction buffer, columns 2-48.
(§13) 6; Time; 20-30 min; Incubation.
(§14) 7; Reagent; 1 uL; MTase-Glo reagent (5X), columns 1-48.
(§15) 8; Time; 30 min; Incubation.
(§16) 9; Reagent; 5 uL; MTase-Glo Detection reagent, columns 1-48.
(§17) 10; Time; 30 min; Incubation, luminescence evolution.
(§18) 11; Detection; Luminescence; ViewLux uHTS Microplate Imager (PerkinElmer).
(§19) NOTES (numbers refer to Sequence numbers above)
(§20) 1, 2, 5. White Medium Binding Greiner 1536-well plates (Cat #789175-F, Greiner Bio-One, Monroe, NC); Reaction buffer: 50 mM Tris, pH 8.0, 3 mM MgCl2, 1 mM EDTA, 50 mM NaCl, 1 mM DTT, and 0.1 mg/mL BSA. Evaporation was prevented by covering assay plates with metal lids containing holes to allow gas diffusion.
(§21) 1. Six SMMTase were profiled: HNMT, GNMT, PNMT, COMT, NNMT, GAMT
(§22) 5. The corresponding substrate was used for each enzyme: HNMT - 5.3 uM Histamine; GNMT - >500 uM Glycine; PNMT - 16.2 uM Norephinephrine; COMT - 13.7 uM Norephinephrine; NNMT - 3.8 uM Nicotinamide; GAMT - 2.5 uM Guanidinoacetate.6, 8, 10. Room temperature
(§23) 6. Final reaction conditions: 10 nM COMT, 5 uM SAM, 15 uM norepinephrine, 50 mM Tris, pH 8.0, 3 mM MgCl2, 1 mM EDTA, 50 mM NaCl, 1 mM DTT, and 0.1 mg/mL BSA; refer to tables 2 and S1 for specific timing.
8. […]

Test [2] has as its target Guanidinoacetate N-methyltransferase (Homo sapiens) (UniProt Q14353). The conditions noted are these: purified enzyme, MTase-Glo SAH luminescence; measured here: GAMT inhibition; at 40 µM; stronger effect = lower value.
Excerpt: as §1, §2, §3, §4, §5, §6, §7, §8, §9, §10, §11, §12, §13, §14, §15, §16, §17, §18, §19, §20, §21, §22, §23
8. […]

For test [3], the target named is Histamine N-methyltransferase (Homo sapiens) (UniProt P50135). The conditions noted are these: purified enzyme, MTase-Glo SAH luminescence; measured here: HNMT inhibition; at 40 µM; stronger effect = lower value.
Excerpt: as §1, §2, §3, §4, §5, §6, §7, §8, §9, §10, §11, §12, §13, §14, §15, §16, §17, §18, §19, §20, §21, §22, §23
8. […]

Test [4] deals with Nicotinamide N-methyltransferase (Homo sapiens) (UniProt P40261). The conditions noted are these: purified enzyme, MTase-Glo SAH luminescence; measured here: NNMT inhibition; at 40 µM; stronger effect = lower value.
Excerpt: as §1, §2, §3, §4, §5, §6, §7, §8, §9, §10, §11, §12, §13, §14, §15, §16, §17, §18, §19, §20, §21, §22, §23
8. […]

For test [5], the target named is Phenylethanolamine N-methyltransferase (Homo sapiens) (UniProt P11086). The settings on record: purified enzyme, MTase-Glo SAH luminescence; measured here: PNMT inhibition; at 40 µM; stronger effect = lower value.
Excerpt: as §1, §2, §3, §4, §5, §6, §7, §8, §9, §10, §11, §12, §13, §14, §15, §16, §17, §18, §19, §20, §21, §22, §23
8. […]
On the % scale 0 is the no-effect control and ±100 the full control effect.

Take `COC(=O)c1cc2n(n1)CC(C)(C(=O)NC1CCC(C)CC1)N(CCc1cccs1)C2=O` (stereo not given): the activity change, negative = inhibition is -2.99% in test [1]; 6.36% in test [2]; -10.3% in test [3]; -2.51% in test [4]; 0.988% in test [5].
The like results for `CC1=CC(=O)[C@]2(O[C@@H]3O[C@@H](C)[C@H](O)[C@@H](O)[C@H]3O)C=CO[C@@H](O[C@@H]3O[C@H](CO)[C@@H](O)[C@H](O)[C@H]3O)[C@H]12` were, in that order, -0.406%, 2.28%, -1.87%, -8.78% and -0.834%.
For `CC(C)c1ccc(NC(=O)CSc2nnc3[nH]c(=O)c(C(C)(C)C)nn23)cc1`, the activity change, negative = inhibition in test [1] is 5.88%; in test [2], 0%; in test [3] it was 9.11%; in test [4], -8.34%; in test [5] it was 0.555%.
On to `C[C@@]1(C2CCCC2)Cc2cc(OCC(=O)O)c(Cl)c(Cl)c2C1=O`, for which the activity change, negative = inhibition in test [1] is -5.28%; in test [2], 9.19%; in test [3] it was 1.89%; in test [4], -50.6%; in test [5], 3.94%.
The like results for `COc1cccc(CCC(=O)NC2CCN(c3cc(C(F)(F)F)nc(C)n3)CC2)c1` were, in that order, -3.4%, -0.84%, 1.31%, -0.159% and 11.6%.
Consider `CCOc1ccccc1CN1C(=O)c2nc3ccccc3n2CC1(C)C(=O)NCc1ccccc1` (stereo not given), for which the activity change, negative = inhibition was -4.14% in test [1]; 0% in test [2]; 4.18% in test [3]; 1.37% in test [4]; 0.012% in test [5].
Consider `CCCn1c(=O)c2ccc(C(=O)NC3CCCCC3)cc2n2c(=O)n(Cc3ccccc3Cl)nc12`, for which the activity change, negative = inhibition in test [1] was -3.64%; in test [2] it was 0.288%; in test [3], -9.73%; in test [4], -5.59%; in test [5], -1.39%.
The like results for `COc1ccccc1CNC(=O)C1(C)Cn2c(cc3ccccc32)C(=O)N1Cc1ccc(OC)c(OC)c1` (stereo not given) were, in that order, 1.03%, 0%, 2.1%, -46.2% and 1.69%.
On the same counts, the results for `NS(=O)(=O)c1ccc(N2CCN(CC[C@@H]3OCCc4ccccc43)CC2)cc1` are 2.35%, -0.831%, 1.7%, -15.2% and -5.61%.
On the same counts, the results for `Oc1cc2c(cc1O)C(c1ccccc1)CNCC2` (stereo not given) are -50.9%, 12.3%, -8.95%, -3.84% and 7.46%.
Turning to `Cc1ccc(Cn2c(=O)c3ccccc3n3c(=O)n(CC(=O)Nc4ccc(C)cc4C)nc23)cc1`, the activity change, negative = inhibition came to 6.18% in test [1]; 0% in test [2]; 7.91% in test [3]; 6.12% in test [4]; 4.65% in test [5].
The like results for `CCc1cccc(NC(=O)CN(C)S(=O)(=O)c2ccc3[nH]c4c(c3c2)CCCC4)c1` were, in that order, 1.31%, 0.568%, 2.1%, 0.838% and 1.83%.
On the same counts, the results for `COc1ccccc1CNC(=O)C1(C)Cn2c(cc3ccccc32)C(=O)N1CCN1CCOCC1` (stereo not given) are 3.04%, 2.9%, 4.53%, 2.9% and 2.07%.
As for `Cn1ccc(NC(=O)[C@@H]2C[C@@H](c3ccc(F)cc3)N(CCOc3ccccc3)C2)n1`, the activity change, negative = inhibition in test [1] was -4.73%; in test [2], -0.634%; in test [3], 1.22%; in test [4], -8.58%; in test [5] it was -14%.
